We go through 33 compounds from the supplement of paper PMC4604168 (melanoma cell lines).

Structures are written as SMILES. The list shows a part of the results. Many values rest on one well or one pass, so single values are uncertain.
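Further: cells treated in 1,536-well plates, then fixed and DAPI-stained, with nuclei counted from automated high-throughput microscope images.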

This assay has as its system A2058. Put plainly: cell count relative to DMSO control; melanoma cells; higher = more viable cells. The conditions noted are these: library dose: standard library concentration; 72 h.
As for `OCCn1cc(-c2cnc3nnn(Cc4ccc5ncccc5c4)c3n2)cn1` + CCc1ccc(CCOc2ccc(CC3SC(=O)NC3=O)cc2)nc1 [pioglitazone] (first compound 5 µM, partner dose 10 µM), the cell count came out at 88.8%.
To `NCC(=O)Nc1ccc(-n2nc(C(F)(F)F)cc2-c2ccc3c(ccc4ccccc43)c2)cc1` + Cc1cc([N+](=O)[O-])ccc1NS(=O)(=O)c1cc(Cl)ccc1Cl [FH535] (first compound 5 µM, partner dose 5 µM) belongs 79.6%; to `Cc1nc(Nc2ncc(C(=O)Nc3c(C)cccc3Cl)s2)cc(N2CCN(CCO)CC2)n1` [dasatanib] + COc1cc(N2CCC(N3CCN(C)CC3)CC2)ccc1Nc1ncc(Cl)c(Nc2ccccc2S(=O)(=O)C(C)C)n1 [NVP-TAE684] (first compound 0.02 µM, partner dose 0.4 µM), 33.9%.
As for `CO[C@@H]1[C@H](N(C)C(=O)c2ccccc2)C[C@H]2O[C@]1(C)n1c3ccccc3c3c4c(c5c6ccccc6n2c5c31)C(=O)NC4` [Midostaurin] + Oc1nc(-c2ccc(C(F)(F)F)cc2)nc2c1CSCC2 [XAV939] (first compound 0.4 µM, partner dose 10 µM), the figure is 55.7%; as for `OCCn1cc(-c2cnc3nnn(Cc4ccc5ncccc5c4)c3n2)cn1` + N#Cc1c(O)c2c(-c3ccc(-c4ccccc4O)cc3)csc2[nH]c1=O [A769662] (first compound 5 µM, partner dose 10 µM), 81.5%.
To `C[C@]1(c2nc3c(C(N)=O)cccc3[nH]2)CCCN1` [Veliparib] + COC(=O)c1sccc1S(=O)(=O)Nc1ccc(Nc2ccccc2)cc1OC [GSK0660] (first compound 7 µM, partner dose 5 µM) belongs 77.1%; to `Cc1nc(Nc2ncc(C(=O)Nc3c(C)cccc3Cl)s2)cc(N2CCN(CCO)CC2)n1` [dasatanib] + COc1ccc(COc2ccc(Cc3cnc(N)nc3N)cc2OC)cc1 [GW2580] (first compound 0.02 µM, partner dose 5 µM), 60.2%.
Take `CN(C)S(=O)(=O)c1ccc2c(c1)/C(=C/c1cc3c([nH]1)CCCC3)C(=O)N2` + COc1ccc2c(c1)CCC1C2CCC2(C)C(NCCCCCCN3C(=O)C=CC3=O)CCC12 [U73122] (first compound 2 µM, partner dose 2 µM): the cell count came to 87.7%.
To `NCC(=O)Nc1ccc(-n2nc(C(F)(F)F)cc2-c2ccc3c(ccc4ccccc43)c2)cc1` + O=C1NC(=O)/C(=C/c2ccc(-c3ccc(F)cc3O)o2)S1 [AS252424] (first compound 5 µM, partner dose 5 µM) belongs 87.4%; to `CN(C)S(=O)(=O)c1ccc2c(c1)/C(=C/c1cc3c([nH]1)CCCC3)C(=O)N2` + Cn1cc(/C=C2\C(=O)Nc3cccnc32)c2ccccc21 [GW441756] (first compound 2 µM, partner dose 2 µM), 89.2%; to `C=CCn1c(=O)c2cnc(Nc3ccc(N4CCN(C)CC4)cc3)nc2n1-c1cccc(C(C)(C)O)n1` + O=C1NC(=O)/C(=C/c2ccc(-c3ccc(F)cc3O)o2)S1 [AS252424] (first compound 0.1 µM, partner dose 5 µM), 108%.
To `C=CCn1c(=O)c2cnc(Nc3ccc(N4CCN(C)CC4)cc3)nc2n1-c1cccc(C(C)(C)O)n1` + COc1ccc(-c2ccc3c(N4CCOCC4)nc(N4C[C@@H](C)O[C@@H](C)C4)nc3n2)cc1CO [KU0063794] (first compound 0.1 µM, partner dose 0.1 µM) belongs 74.7%; to `CO[C@@H]1[C@H](N(C)C(=O)c2ccccc2)C[C@H]2O[C@]1(C)n1c3ccccc3c3c4c(c5c6ccccc6n2c5c31)C(=O)NC4` [Midostaurin] + O=S(=O)(c1ccccc1)N(CC(F)(F)F)c1ccc(C(O)(C(F)(F)F)C(F)(F)F)cc1 [T0901317] (first compound 0.4 µM, partner dose 7 µM), 31.6%; to `C[C@]1(c2nc3c(C(N)=O)cccc3[nH]2)CCCN1` [Veliparib] + Cc1cc([N+](=O)[O-])ccc1NS(=O)(=O)c1cc(Cl)ccc1Cl [FH535] (first compound 7 µM, partner dose 5 µM), 78.4%.
The compound `Cc1nc(Nc2ncc(C(=O)Nc3c(C)cccc3Cl)s2)cc(N2CCN(CCO)CC2)n1` [dasatanib] + O=c1cc(-c2cccc3c2Sc2ccccc2S3)oc(N2CCOCC2)c1 [KU55933] (first compound 0.02 µM, partner dose 5 µM) had a cell count of 66.7%.
`Cc1nc(Nc2ncc(C(=O)Nc3c(C)cccc3Cl)s2)cc(N2CCN(CCO)CC2)n1` [dasatanib] + COc1ccc(-c2ccc3c(N4CCOCC4)nc(N4C[C@@H](C)O[C@@H](C)C4)nc3n2)cc1CO [KU0063794] (first compound 0.02 µM, partner dose 0.1 µM) returned a cell count of 66.3%.
Regarding `CN(C)S(=O)(=O)c1ccc2c(c1)/C(=C/c1cc3c([nH]1)CCCC3)C(=O)N2` + COC(=O)c1sccc1S(=O)(=O)Nc1ccc(Nc2ccccc2)cc1OC [GSK0660] (first compound 2 µM, partner dose 5 µM), the cell count turned out to be 89.6%.
`CN(C)S(=O)(=O)c1ccc2c(c1)/C(=C/c1cc3c([nH]1)CCCC3)C(=O)N2` + COc1cc2ncnc(Nc3ccc(Oc4ccccc4)cc3)c2cc1OC [SrcI1] (first compound 2 µM, partner dose 10 µM): the cell count was 73.7%.
Take `NCC(=O)Nc1ccc(-n2nc(C(F)(F)F)cc2-c2ccc3c(ccc4ccccc43)c2)cc1` + CC(C)CCN1c2nc(Nc3cc(F)c(O)c(F)c3)ncc2N(C)C(=O)C1C [BID1870] (first compound 5 µM, partner dose 1 µM): the cell count was found to be 101%.
To `NC(=O)Nc1cc(-c2cccc(F)c2)sc1C(=O)N[C@H]1CCCNC1` + O=C(Nc1ccccc1)c1cc([N+](=O)[O-])ccc1Cl [GW9662] (first compound 0.1 µM, partner dose 10 µM) belongs 66.8%; to `OCCn1cc(-c2cnc3nnn(Cc4ccc5ncccc5c4)c3n2)cn1` + Oc1nc(-c2ccc(C(F)(F)F)cc2)nc2c1CSCC2 [XAV939] (first compound 5 µM, partner dose 10 µM), 81.8%.
As for `Cc1nc(Nc2ncc(C(=O)Nc3c(C)cccc3Cl)s2)cc(N2CCN(CCO)CC2)n1` [dasatanib] + O=C(O)C(=O)Nc1sc2c(c1C(=O)O)CCNC2 [TCS401] (first compound 0.02 µM, partner dose 8.33333 µM), the figure is 57.3%; as for `C[C@]1(c2nc3c(C(N)=O)cccc3[nH]2)CCCN1` [Veliparib] + CC(C)CCN1c2nc(Nc3cc(F)c(O)c(F)c3)ncc2N(C)C(=O)C1C [BID1870] (first compound 7 µM, partner dose 1 µM), 73.8%; as for `CO[C@@H]1[C@H](N(C)C(=O)c2ccccc2)C[C@H]2O[C@]1(C)n1c3ccccc3c3c4c(c5c6ccccc6n2c5c31)C(=O)NC4` [Midostaurin] + COc1ccc(COc2ccc(Cc3cnc(N)nc3N)cc2OC)cc1 [GW2580] (first compound 0.4 µM, partner dose 5 µM), 62.3%.
As for `NCC(=O)Nc1ccc(-n2nc(C(F)(F)F)cc2-c2ccc3c(ccc4ccccc43)c2)cc1` + COc1ccc2c(c1)CCC1C2CCC2(C)C(NCCCCCCN3C(=O)C=CC3=O)CCC12 [U73122] (first compound 5 µM, partner dose 2 µM), the figure is 85.7%.
For the compound `C[C@]1(c2nc3c(C(N)=O)cccc3[nH]2)CCCN1` [Veliparib] + Oc1cc(-c2nc(-c3ccccc3)[nH]c2-c2ccncc2)ccc1Cl [L779450] (first compound 7 µM, partner dose 1 µM), the cell count is 79.6%.
In turn, `C[C@]1(c2nc3c(C(N)=O)cccc3[nH]2)CCCN1` [Veliparib] + COc1ccc2c(c1)CCC1C2CCC2(C)C(NCCCCCCN3C(=O)C=CC3=O)CCC12 [U73122] (first compound 7 µM, partner dose 2 µM) returned a cell count of 48.7%.
To `OCCn1cc(-c2cnc3nnn(Cc4ccc5ncccc5c4)c3n2)cn1` + O=C(Nc1ccccc1)c1cc([N+](=O)[O-])ccc1Cl [GW9662] (first compound 5 µM, partner dose 10 µM) belongs 114%; to `CN(C)S(=O)(=O)c1ccc2c(c1)/C(=C/c1cc3c([nH]1)CCCC3)C(=O)N2` + O=c1cc(-c2cccc3c2Sc2ccccc2S3)oc(N2CCOCC2)c1 [KU55933] (first compound 2 µM, partner dose 5 µM), 84.7%; to `CO[C@@H]1[C@H](N(C)C(=O)c2ccccc2)C[C@H]2O[C@]1(C)n1c3ccccc3c3c4c(c5c6ccccc6n2c5c31)C(=O)NC4` [Midostaurin] + O=c1cc(-c2cccc3c2Sc2ccccc2S3)oc(N2CCOCC2)c1 [KU55933] (first compound 0.4 µM, partner dose 5 µM), 47.2%.
As for `C[C@]1(c2nc3c(C(N)=O)cccc3[nH]2)CCCN1` [Veliparib] + CCN(CC)CCCCNc1ncc2cc(-c3cc(OC)cc(OC)c3)c(NC(=O)NC(C)(C)C)nc2n1 [PD173074] (first compound 7 µM, partner dose 0.5 µM), the figure is 75.2%.
To `NC(=O)Nc1cc(-c2cccc(F)c2)sc1C(=O)N[C@H]1CCCNC1` + COC(=O)c1sccc1S(=O)(=O)Nc1ccc(Nc2ccccc2)cc1OC [GSK0660] (first compound 0.1 µM, partner dose 5 µM) belongs 94.7%.
Compound `CN(C)S(=O)(=O)c1ccc2c(c1)/C(=C/c1cc3c([nH]1)CCCC3)C(=O)N2` + COc1ccc(COc2ccc(Cc3cnc(N)nc3N)cc2OC)cc1 [GW2580] (first compound 2 µM, partner dose 5 µM) displayed a cell count of 92%.
